The results in this text go back to the RNAGym collection of RNA variant scans (doi:10.1093/nar/gkz1192).

The source gives no read counts; variants with many changes may rest on few reads.

The chains are these.
B1: CPEB3 Ribozyme (parent)
chain: UAACAGGGGGCCACAGCAGAAGCGUUCACGUCGCAGCCCCUGUCAGAUUCUGGUGAAUCUGCGAAUUCUGCUGUAUAUCUC

In the data set the parent is B1. Nature of the data set: self-cleavage, relative activity (ratio to wild type); higher = more cleavage; in vitro, sequencing. The gist of the method: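 CPEB3 self-cleaving ribozyme mutant libraries were made by rounds of error-prone PCR, barcoded, and transcribed in vitro with T7 RNA polymerase for 5 hours at 37°C. Cleavage occurred during transcription and a 15 min DNase I step before EDTA stop. RNAs were reverse transcribed with template switching and Illumina-sequenced, with DNA sequencing mapping barcodes to variants. Relative activity is the variant's cleaved/total read fraction divided by wild type's (minimum 5 reads), averaged across three batches.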
Take UAACAGGCGGCCACAGCAGAAGCGUUCACGCCGCAGCCCCUGUCAGACUCUGGUGAAUCUGCGAAUUCUGCCGUAUAUCUC [G8C U31C U48C U72C]: the self-cleavage amounted to 0.15.

As to UAACAGGUGGCCACAGCAGGAGCGUUCACGUCGUGGCCCCCGUCAGAUUCUGGUGAAUCUGCGAAUUCUGCUGUAUGUCUC [G8U A20G C34U A35G U41C A77G], the self-cleavage came out at 0.04.

Take UAACAGGUGGCCACAGCAGGAGCGUUCACGUCGCGGCCCCUGUCAGAUUCUGGAGAAUCUGCGAAUUCUGCUGUAUAUCCC [G8U A20G A35G U54A U80C]: the self-cleavage is 0.08.

As to UAACAGGUGGCCACAGCGGAAGCGUUCACGUCGCAGCCCCUGCCAGAUUCUGGUGAAUCUGCGAAUUUUGCCGUAUAUCUC [G8U A18G U43C C68U U72C], the self-cleavage turned out to be 0.09.

In the case of UAACAGGUGGCCACAGCUGAAGCGUUCACGUCGCAGCCCCUGUCAGAUUCUGGUGAAUCUGCGAAUUCUGCAGUAUAUCUC [G8U A18U U72A], the self-cleavage stood at 0.18.

For UAACAGGUGGCCACAGCUGAAGCGUUCACGUCGCAGCCCCUGUCAGAUUCUGGUGAAUCUGCGAAUUCUGCUGUAUAUCCC [G8U A18U U80C], the self-cleavage was found to be 0.06.

In the case of UAACAGGUGGCCACGGCAGAAGCGUUCACGUCGCAGCCCCUGUCAGAUUCUGGUGUAUCUGCGAAUUCUGCUGUACAUCUC [G8U A15G A56U U76C], the self-cleavage was 0.2.

UAACAGGCGGCCACAGCAGAAGCGCCCACGUCGCAGCCCCUGUCAGAUUCUGGUGAAUCUGCGAAUUCCGCAAUAUGUCUC [G8C U25C U26C U69C U72A G73A A77G]: the self-cleavage worked out at 0.

With UAACAGGCGGCCACAGCAGAAGCGUACACGUCGCAGCCCCUGUCAGAUUCUCGUGAAUCUGCGAAUUCUGCUGUAUAUCUC [G8C U26A G52C], the self-cleavage is 0.07.

On to UAACAGGUGGCCACAGCCGAAGCGUUCACGUCGCAGCCCCUGUCAGACUCUGGUGAAUCUGCGAAUUCUGCUGUAUAUCUC [G8U A18C U48C], for which the self-cleavage stood at 0.09.

Turning to UAACAGGCGGCCAUAGCAGAAGCGUUCACGUCGCAGCCCCUGUCAGAUUCUGGUGAAUCUGCGAAUUCUGCAGUAUAUCUC [G8C C14U U72A], the self-cleavage stood at 0.23.

As to UAACAGGCGGCCACAGCUGGAGCGUUCUCGUCGCAGCCCCUGUCAGAUUCUGGUGAAUCUGCGAAUUCUGCUGUAUAUCUC [G8C A18U A20G A28U], the self-cleavage amounted to 0.09.

Consider UAACAGGCGGCCACAGCAGAAGCGUACACGUCGCAACCCCAGUCAAAUUCUGGUGAAUCUGCGAAUCCUGCCGUAUAUCUC [G8C U26A G36A U41A G46A U67C U72C], for which the self-cleavage is 0.04.

With UAACAGGCGGCCACAGCAGAAGCGUUCACGUCGCAGCCCCUGUCCGAUUCUUGCGAAUCUGCGAAUUCUGCUGUAUAUCUC [G8C A45C G52U U54C], the self-cleavage worked out at 0.43.

Consider UAACAGGCGGCCACAGCGGAAGCGUUCUCGUCGCAGCCCCUGUCAGAUUCUGGUGAAUCUGCGAAUCCUGCUGUAUAUCUC [G8C A18G A28U U67C], for which the self-cleavage is 0.07.

As for UAACAGGCGGCCACAGCAGAAGCGCUCACGUCGCAGCCCCUGUCAGAUUCUGGUGAAUCUGCGAGUUCUGCCGCAUAUCUC [G8C U25C A65G U72C U74C], the self-cleavage worked out at 0.05.

In the case of UAACAGGUGGCCACAGCAGUAGCGUUCACGUCGUAGCCCCCGUCAGAUUCUGGUGAAUCUGCGAAUCCUGCUGUAUAUCUC [G8U A20U C34U U41C U67C], the self-cleavage worked out at 0.09.

Regarding UAACAGGUGGCCGCAGCAGAAGCGUUCACGUCGCAGCACCUGUCAGAUUCUGGUGAAUCUGCGAAUUCUGCUGUAUAUCUC [G8U A13G C38A], the self-cleavage came to 0.06.

In the case of UAACAGGUGGCCACAGCAGGAGCGUUCACGUCGCAGCCCCGGUCAGAUUCUGGGGAAUCUGCGAAUCCUGCUGUAUAUCUC [G8U A20G U41G U54G U67C], the self-cleavage turned out to be 0.14.

As for UAACAGGUGGCCACAGCUGAAGCGUUCACGUCGCAGCCCCUGUCAGAUUCUGGUGAAUCUGCGAACUCUGCUGCAUAUCUC [G8U A18U U66C U74C], the self-cleavage was found to be 0.1.

Turning to UAACAGGCGGUCACAGCAGAAGCGGUCACGUCGCAGCCCCUGCCAGAUUCAGGUGAAUCUGUGAAUUCUGCUGUAUAUCUC [G8C C11U U25G U43C U51A C62U], the self-cleavage came out at 0.12.

With UAACAGGUGGCCACGGCAGAAGCGUUCACGUCGCAGCCCCAGUCAGACUCUGGCGGAUCUGCGAAUUCUGCUGUAUAUCUC [G8U A15G U41A U48C U54C A56G], the self-cleavage was 0.06.

For UAACAGGUGGCCGCAGCAGGAGCGUUCAUGUCGCAGCCCGUGUCAGAUUCUGGAGAAUCAGCGAAUUCUGCUGUAUAUCUC [G8U A13G A20G C29U C40G U54A U60A], the self-cleavage was determined as 0.04.

Take UAACAGGCGGCCACAGCAGAAGCGUUCACGUCGCAGCCCCUGUCAGAUUCUGGUGAAUCAGCGAAUUCAGCUGUAUAUCUC [G8C U60A U69A]: the self-cleavage was determined as 0.05.

Take UAACAGGUGGCCACUGCAGUAGCGUUCACGUAGCAGCCCCUGCCAGAUUCUGUUGAAUCUGCGAAUUCUGCUGUAUAUCUC [G8U A15U A20U C32A U43C G53U]: the self-cleavage came to 0.04.

As to UAACAGGCGGCCACAGCAGAAGCGUACACGUCGCAGCCCCUGUCAGAUUCUGGUAAAUCUGCGAAUUCUGCUGUAUAUCUC [G8C U26A G55A], the self-cleavage is 0.35.

On to UAACAGGUGGCCACAGCUGAAGCGUUCACGUCGCAGCCCCUGUCAGGUUCUGGUGAAUCUGCGAAUUCUGCUGUAUAUCAC [G8U A18U A47G U80A], for which the self-cleavage was determined as 0.04.

On to UAACAGGUGGCCUCAGCAGAAGCGUUCACGUCGCAGCCCCUGUCAGAUUCAGGUGAAUCUGCGAAUUCUGCGGUACACCUC [G8U A13U U51A U72G U76C U78C], for which the self-cleavage was determined as 0.04.

With UAACAGGUGGCCACGGCAGAAGCGUUCACGCCGCUGCCCCCGUCAGAUUCUGGUGAAUCUGCGAAUUCUGCUGUAUAUCUC [G8U A15G U31C A35U U41C], the self-cleavage was 0.16.

For UAACAGGCGGCCAUAGCAGAAGCGUUCACGUCGCAGCCCCUGUCAGAAUCUGGUGAACCUGCGAAUUCAGCUGUAUAUCUC [G8C C14U U48A U58C U69A], the self-cleavage came to 0.05.

As to UAACAGGUGGCCGCAGCAGAAGCGUUCACGUCGCAGCCCCAGUCAGAUUCUGGUGAAUCUGCGAAUUCUGCUGUAUAUCUC [G8U A13G U41A], the self-cleavage worked out at 0.07.

Regarding UAACAGGCGGCCACAGCAGAAGCGUUCACGUCGGAGCCCCUGUCAGACUCCGGUGAAUCUGCGAAUUCUGCUGUAUAUCUC [G8C C34G U48C U51C], the self-cleavage was determined as 0.23.

As for UAACAGGUGGCCACAGCAGGAGCGUUCACGUCGCAGCCCCUGUCAGAUUCUGGUAAAUCUGCGAAUUCUGCUGUAUAUCCC [G8U A20G G55A U80C], the self-cleavage came to 0.06.

UAACAGGUGGCCACGGCAGAAGCGUUCACGUCGCAGCCCCUGUCAGACUCUGGCGAAUCUGCGAAUUCCGCUGUAUAUCUC [G8U A15G U48C U54C U69C]: the self-cleavage stood at 0.26.
